43 compounds from publication PMC4336329 (PLoS ONE, 2015) can be followed below.

Screen size: about 310,000 compounds; about 14,000 (4.5%) showed an effect of 50% or more. The effect is printed as a negative number. The list shows a part of the results.
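Note: peak tail current of the secondary pulse compared with the same well before compound.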

In the test the target is human ether-à-go-go-related gene (hERG) potassium channel (human, UniProt Q12809). Put plainly: primary screen, population patch clamp on CHO cells stably expressing hERG.
Chain of human ether-à-go-go-related gene (hERG) potassium channel (Q12809 whole entry, looked up): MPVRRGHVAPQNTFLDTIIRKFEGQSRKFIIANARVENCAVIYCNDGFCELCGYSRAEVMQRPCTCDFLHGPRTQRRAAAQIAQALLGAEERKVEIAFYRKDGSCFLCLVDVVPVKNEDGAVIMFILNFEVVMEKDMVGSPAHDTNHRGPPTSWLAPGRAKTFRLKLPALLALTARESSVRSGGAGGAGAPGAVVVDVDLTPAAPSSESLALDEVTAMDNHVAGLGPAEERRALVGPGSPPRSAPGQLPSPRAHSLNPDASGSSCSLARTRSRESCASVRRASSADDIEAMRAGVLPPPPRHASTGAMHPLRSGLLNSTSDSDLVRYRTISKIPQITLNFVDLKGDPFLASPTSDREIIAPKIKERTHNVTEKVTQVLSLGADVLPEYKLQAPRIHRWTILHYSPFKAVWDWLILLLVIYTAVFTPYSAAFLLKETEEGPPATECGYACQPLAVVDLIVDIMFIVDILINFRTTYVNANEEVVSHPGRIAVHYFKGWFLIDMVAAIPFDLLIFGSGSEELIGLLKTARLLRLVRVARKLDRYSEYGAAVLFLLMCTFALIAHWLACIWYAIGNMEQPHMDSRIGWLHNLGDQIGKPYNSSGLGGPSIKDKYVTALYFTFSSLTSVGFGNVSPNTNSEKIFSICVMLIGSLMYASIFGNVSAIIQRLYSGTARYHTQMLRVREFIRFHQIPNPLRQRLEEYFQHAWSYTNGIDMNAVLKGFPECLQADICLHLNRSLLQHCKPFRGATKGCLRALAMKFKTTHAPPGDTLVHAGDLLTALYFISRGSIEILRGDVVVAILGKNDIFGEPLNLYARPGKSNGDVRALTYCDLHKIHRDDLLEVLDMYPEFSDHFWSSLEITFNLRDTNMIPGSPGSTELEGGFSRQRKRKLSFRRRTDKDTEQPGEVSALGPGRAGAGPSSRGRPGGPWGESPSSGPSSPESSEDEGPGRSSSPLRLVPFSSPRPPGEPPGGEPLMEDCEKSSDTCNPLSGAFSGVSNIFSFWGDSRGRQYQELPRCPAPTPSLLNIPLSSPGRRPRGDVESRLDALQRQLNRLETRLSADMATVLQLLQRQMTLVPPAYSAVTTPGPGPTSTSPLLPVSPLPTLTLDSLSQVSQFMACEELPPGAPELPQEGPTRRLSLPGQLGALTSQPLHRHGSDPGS
In the case of `Cc1c2c(nc3c(C(=O)NC4CCCC4)cnn13)CCCC2`, the “hERG current change (%, negative = inhibition) at 10uM” value is recorded as -10.9%.

For the compound `Cc1ccc(-n2ncc3c2CCCC3NC(=O)CSc2ccccn2)cc1C` (stereo not shown), the “hERG current change (%, negative = inhibition) at 10uM” value is recorded as -17.2%. Take `S=C1NC2(CCCCC2)Nc2ccccc21`: the “hERG current change (%, negative = inhibition) at 10uM” value is listed as 9.43%. With `Cc1nnc(SCCn2c(N3CC(C)CC(C)C3)nc3c2c(=O)[nH]c(=O)n3C)s1` (stereo not shown) the figure was -0.528%. With `COc1ccc(N2CCN(CCCNC(=O)C3CCN(S(=O)(=O)N4CCOCC4)CC3)CC2)cc1` the figure was -27.2%. With `COc1ccc(C2=Nc3ccc(C)cc3C(c3ccccc3)N2CC(=O)NN)cc1` (stereo not shown) the figure was -23.2%; with `C/C(=N\NC(=O)c1ccc(O)cc1)c1ccc2c(c1)OCCO2`, 3.5%.

Turning to `CC(Cc1ccccc1)NC=O` (stereo not shown), the “hERG current change (%, negative = inhibition) at 10uM” value is recorded as 12.3%. On to `Cc1ccc(OCC(=O)NCc2ccc3c(c2)OCO3)c([N+](=O)[O-])n1`, for which the “hERG current change (%, negative = inhibition) at 10uM” value is -32.4%. With `O=C(Nc1ccc(-c2cnco2)cc1)c1ccc(F)cc1F` the figure was 19.4%; with `Cc1c(NC(=O)CSc2nnc(COc3ccccc3)n2-c2ccccc2)c(=O)n(-c2ccccc2)n1C`, 4.48%; with `Cc1ccc(C(=O)N(c2c(C)n(C)n(-c3ccccc3)c2=O)C(C)C)cc1`, -0.41%. To `COc1ccc(OC)c(NC(=O)CSc2nncc(=O)n2N)c1` belongs 13.4%; to `O=C(CCC1CCCC1)NNC(=O)c1ccccc1O`, -14.2%; to `COc1cccc(NC(=O)CN2C(=O)COc3ccc(C)cc32)c1`, 8.5%.

Take `Nc1ccc(C(=O)N/N=C/c2cn(Cc3cccc(F)c3)c3ccccc23)cc1`: the “hERG current change (%, negative = inhibition) at 10uM” value amounted to 16%. With `O=C(COC(=O)c1ccc(O)cc1)Nc1cc(C(F)(F)F)ccc1Cl` the figure was -0.624%. For `Cc1ccc(CSc2nc3ccccc3c(=O)n2CCCC(=O)NCc2ccco2)cc1`, the “hERG current change (%, negative = inhibition) at 10uM” value is -2.71%. To `CCOC(=O)C1(CCOc2ccccc2)CCN(CC2CC2)CC1` belongs -47.4%; to `CC(Cc1ccccc1Sc1ccccc1O)N(C)C.Cl` (stereo not shown), -18.9%. With `Cc1ccc(C(C)C)c(OCC(=O)NNC(=O)Cn2[nH]c(=O)c3ccccc3c2=O)c1`, the “hERG current change (%, negative = inhibition) at 10uM” value came to 3.84%. Turning to `O=C(c1cc(-c2ccc(Cl)c(Cl)c2)on1)N1CCN(c2ccccc2)CC1`, the “hERG current change (%, negative = inhibition) at 10uM” value was 9.74%. To `CC1CN=C(Nc2ccccc2)S1` (stereo not shown) belongs 7.23%; to `COc1ccc(N2CCN(C(=O)c3ccc(CS(=O)Cc4ccc(Cl)cc4)o3)CC2)cc1` (stereo not shown), -50.1%. With `COc1cc(C(=O)Nc2ccc3c(c2)Cc2ccccc2-3)cc(OC)c1OC` the figure was 0.538%; with `O=C(Nc1ccc(Cl)c(S(=O)(=O)N2CCOCC2)c1)C1CCC1`, -10.4%. Regarding `Nc1nc(NCCCN2CCOCC2)nc(Nc2ccccc2)c1[N+](=O)[O-]`, the “hERG current change (%, negative = inhibition) at 10uM” value is -36.5%. With `CCn1c(/N=C/c2ccc(OC)cc2O)nc2ccccc21` the figure was 10.4%; with `O=C(CCC1CCCN(C(=O)Cn2cnnn2)C1)NCc1ccccc1F` (stereo not shown), 20.1%; with `O=C(O)c1ccccc1N/N=C/c1c(Sc2nnnn2-c2ccccc2)nc2ccccn2c1=O`, -21.4%.

Regarding `O=C(COC(=O)CCC1CCCC1)Nc1ccc(Cl)cc1F`, the “hERG current change (%, negative = inhibition) at 10uM” value was -9.62%.

On to `O=C(c1ccc2c(c1)OCO2)N1CCc2ccccc2C1`, for which the “hERG current change (%, negative = inhibition) at 10uM” value was found to be 3.39%. To `CCSc1nc2sc3c(c2c(=O)[nH]1)CCCC3` belongs 12.8%. To `CCN(CC)CCOc1c(C)cccc1Cl` belongs -47.2%; to `Cc1ccc(NC(=O)CSCc2c(C)noc2C)cc1C`, 2.55%; to `Cc1ccc(C(=O)Nc2ccon2)cc1S(=O)(=O)N1CCCCCC1`, -29.7%. To `CC(C)(C)NS(=O)(=O)c1ccc(NS(=O)(=O)Cc2ccccc2)cc1` belongs 6.65%; to `COc1ccccc1CNC(=O)C1CC2Cn3c(nc4ccccc43)C2N1C` (stereo not shown), -9.34%. Consider `Cc1ccc(S(=O)(=O)N2CCN(C(=O)[C@H](Cc3ccccc3)NC(=O)c3ccco3)CC2)cc1C`, for which the “hERG current change (%, negative = inhibition) at 10uM” value is listed as -0.776%. As for `CC(C)C(NC(=O)c1ccc(C(C)(C)C)cc1)C(=O)Nc1ccc(N2CCOCC2)cc1` (stereo not shown), the “hERG current change (%, negative = inhibition) at 10uM” value is -20.4%. With `Oc1ccc2oc3c(c2c1)CCCC3` the figure was 1.39%; with `O=C(OC(C(=O)Nc1cccc(C(F)(F)F)c1)c1ccccc1)C1CCCCC1` (stereo not shown), 17.1%; with `O=C(CNC(=O)C1CCCCC1)NCc1ccco1`, 11.9%.
